From PubChem BioAssay AID445 (National Center for Advancing Translational Sciences (NCATS), 2006)
In all, about 110,000 compounds went through this assay and about 40 (0.04%) were called active. Inconclusive means that the source gave no clear call. Such entries were picked first, then a sample of the others. The call rests on the fitted dose curve; in most records, active means well fitted curve in the direction sought with a large enough effect in the signal ratio (not every such curve was filed as active); inconclusive means small, poorly fitted or top-dose-only effect, or a change in a side signal; inactive means flat fitted curve, though single readings scatter; the % refers to the signal ratio. Potencies of inconclusive entries are doubtful fits and often do not repeat.

Assay: IkB Signaling;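 on IkBa stabilization activation: 0% = basal untreated cells and 100% = reference inhibitor full response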
Settings: ABC-DLBCL IkBa-CBG/CBR dual luciferase ratio (green luciferase fused to IkBa over red control in OCI-Ly3 lymphoma cells), 4 h; IkBa stabilization activation: at 57.1 µM (top of the series), scaled: untreated 0%, proteasome inhibitor 100% unless noted
Outline: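 Luminescence ratio of IκBα-fused green versus native red beetle luciferase in OCI-Ly3 cells, 4 h post-doxycycline with compound; red signal alone, scaled from basal (0%) to zero light (-100%), flagged nonspecific or cytotoxic effects.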
Potency means the concentration at half of the fitted maximal effect.

SMILES | IkBa stabilization activation | Potency
COc1ccc(NC(=O)c2oc3ccccc3c2NC(=O)c2ccco2)cc1 | inconclusive: 6.07% [signal inhibitor] | 
CCc1nnc(NC(=O)Nc2ccccc2OC)s1 | inactive: 1.44% | 
Cc1nc2cccc(C(=O)NCc3ccccc3)c2o1 |  | inconclusive: 2.51 µM [signal inhibitor, full curve]
COCCn1c(=O)c(-c2ccc(OC)cc2)nc2cnc(Nc3cccc(OC)c3)nc21 | inactive: 1.74% [at 11.4 µM, scaled: untreated 0%, proteasome inhibitor 100%] | 
O=S(=O)(c1ccc(Br)cc1)c1nc(-c2cccs2)oc1SCc1ccc(F)cc1 | inconclusive: -4.77% [signal inhibitor] | 
Cc1ccc(-c2nc(CN(C)C)cc(CN(C)C)c2O)cc1 | inconclusive: 14.6% [signal inhibitor] | 
O=C(CC1Oc2ccccc2NC1=O)NCCCN1CCCC1=O (stereo unspecified) | inconclusive: 18.2% [signal inhibitor] | 
Cc1ccc(C)c(N2CCN(C(=O)C3CCN(C(=O)c4cc5sccc5n4C)CC3)CC2)c1 | inconclusive: 7.17% [signal inhibitor] | 
Cc1nnc(SCc2cn3ccsc3n2)n(N)c1=O | inactive: 0.636% | 
O=C(c1ccc2c(c1)N(Cc1ccc(Cl)cc1)C(=O)c1ccccc1S2(=O)=O)N1CCC(Cc2ccccc2)CC1 | inconclusive: 0.698% [signal inhibitor] | 
O=C(c1ccc2c(c1)N(Cc1ccc(F)cc1)C(=O)c1ccccc1S2(=O)=O)N1CCCCCC1 | inconclusive: 2.96% [signal inhibitor] | 
CCOc1ccc(NC(=O)CSC2=Nc3ccccc3C3=NC(CC(=O)NCc4ccccc4OC)C(=O)N23)cc1 (stereo unspecified) | inactive: 0.205% | 
CCn1c(=O)c(C(=O)Nc2cccnc2)c(O)c2ccccc21 | inconclusive: 2.74% [signal inhibitor] | 
Cc1oc(-c2ccccc2F)nc1CS(=O)(=O)CC(=O)N1CCN(c2ccc(Cl)cc2)CC1 | inconclusive: 5.6% [signal inhibitor] | 
COc1ccc(CCn2c(=O)c3ccccc3n(CC(=O)Nc3cccc(C)c3)c2=O)cc1OC | inconclusive: 12.4% [signal inhibitor] | 
CCN1c2ccccc2NC2C1C(C(C)=O)C(=O)N2c1ccc(Cl)cc1 (stereo unspecified) | inconclusive: 2.5% [signal inhibitor] | 
Cc1ccc(C)c(S(=O)(=O)c2cn(C)c3cc(F)c(F)cc3c2=O)c1 | inconclusive: 3.18% [signal inhibitor] | 
COCCOC(=O)c1c(C)oc2ccc(OC(=O)c3cccs3)cc12 | inactive: 6.5% | 
CCc1cccc(NC(=O)c2c(N3CCCC3=O)c3cc(C)ccc3n2C)c1 | inactive: -0.327% | 
COC(=O)c1sc(-c2ccccc2)cc1NC(=O)Nc1ccccc1Cl | inconclusive: 3.51% [signal inhibitor] | 
CCOC(=O)N1CCc2c(sc3c2c(=O)n(Cc2ccccc2)c(=O)n3CC(=O)Nc2cccc(C)c2)C1 | inconclusive: 1.35% [signal inhibitor] | 
Cc1cc(C)cc(Nc2nc3ccccc3nc2-n2nc(C)cc2C)c1 | inactive: 8.82% | 
CCCCC(=O)Nc1cc(-c2nc3cccnc3s2)ccc1C | inconclusive: 1.22% [signal inhibitor] | 
CN(C)S(=O)(=O)c1ccc(C(=O)Nc2c(C(=O)Nc3ccc(F)cc3)oc3ccccc23)cc1 | inconclusive: 1.54% [signal inhibitor] | 

SMILES | IkBa stabilization activation | Potency
c1ccc(Nc2ccccc2Nc2ccccn2)nc1 | inactive: 0.528% | 
CCNc1ncc2nc(-c3cccs3)c(=O)n(CCC#N)c2n1 | inactive: -4.14% [at 11.4 µM, scaled: untreated 0%, proteasome inhibitor 100%] | 
COc1ccccc1C(=O)Nc1c(C(=O)N2CCN(c3ccccc3F)CC2)oc2ccccc12 | inconclusive: 0.272% [signal inhibitor] | 
Cc1nc2oc3c(NCC4CCCO4)ncnc3c2c2c1COC(C)(C)C2 (stereo unspecified) | inactive: -3.15% | 
Cc1ccc(CNC(=O)c2ccc3c(c2)NC(=O)C(CS(=O)(=O)Cc2ccc(F)cc2)N3)cc1 (stereo unspecified) | inconclusive: 3.26% [signal inhibitor] | 
Cc1ccc(NC(=O)Cn2c(=O)n(Cc3ccco3)c(=N)c3c4c(sc32)COC(C)(C)C4)cc1 | inconclusive: 6.47% [signal inhibitor] | 
CC(C)(C)c1ccc(C(=O)Nc2ccc(C(=O)OCc3cc(=O)n4ccsc4n3)cc2)cc1 | inconclusive: 5.19% [signal inhibitor] | 
Cc1onc(-c2ccccc2)c1C(=O)Nc1sc2c(c1C(N)=O)CCC2 | inconclusive: 2.88% [signal inhibitor] | 
Cc1cc(NC(=O)c2cc(-c3cccnc3)nc3c(C)c(C)ccc23)no1 | inconclusive: 0.272% [signal inhibitor] | 
Cc1cccc(C2C=C(c3ccc(F)cc3)Nc3nc4ccccc4n32)c1 (stereo unspecified) | inconclusive: 10.6% [signal inhibitor] | 
Cc1ccc(NC(=O)c2cccc(OCc3c(C)noc3C)c2)c(C)c1 | inconclusive: 1.88% [signal inhibitor] | 
COc1ccc(C(=O)NCCSc2c(C)[nH]c3ccccc23)cc1 | inconclusive: 9.48% [signal inhibitor] | 
Cc1ccc(NC(=O)Nc2nnc(SCC(=O)N3CCC(C)CC3)s2)cc1 | inconclusive: 2.85% [signal inhibitor] | 
Cc1ccccc1C(=O)OCn1nnc2ccccc2c1=O | inactive: 0.841% | 
COCCCN1C(=O)c2[nH]nc(-c3cc(C)cc(C)c3O)c2C1c1ccc(O)c(OC)c1 (stereo unspecified) | inactive: -0.212% | 
CCN(CC)c1ccc2c(C)cc(=O)oc2c1 | inactive: -2.58% | 
COc1ccc(-n2cc(C(=O)NC(C)c3ccccc3)c3ccccc3c2=O)cc1 (stereo unspecified) | inconclusive: 3.33% [signal inhibitor] | 
CCOC(=O)c1ccc(-c2c(C(=O)OCC)oc3cc(O)c(CC)cc3c2=O)o1 | inconclusive: 15.6% [signal inhibitor] | 
O=C(NC1CCCC1)c1ccc(CSc2nc3ccncc3n2Cc2ccc(F)cc2)cc1 | inconclusive: 4.15% [signal inhibitor] | 
Cc1ccccc1C(=O)Nc1ccc2nc3n(c(=O)c2c1)CCC3 | inactive: 12.9% | 
COc1ccc(C(=O)NCCn2cc(SCC(=O)NCc3ccco3)c3ccccc32)cc1 | inconclusive: 0.0495% [signal inhibitor] | 
CCN1CCN(c2cc(C)c3cc(NC(=O)/C=C/c4cccc(Cl)c4)ccc3n2)CC1 | inconclusive: -7% [signal inhibitor] | 
O=C(Nc1ccc(NC(=O)c2ccco2)nc1)c1ccccn1 | inconclusive: 4.83% [signal inhibitor] | 
Cc1ccc(NC(=O)Cn2cc(S(=O)(=O)N3CCCC3)c(S(=O)(=O)N3CCCC3)c2)cc1C | inconclusive: 5.15% [signal inhibitor] | 

SMILES | IkBa stabilization activation | Potency
CCOc1ccc(NC(=O)c2ccc(-c3cccc(Cl)c3C)o2)cc1 |  | inconclusive: 20 µM [signal inhibitor]
CCCCn1c(NC(C)=O)c(C#N)c2nc3ccccc3nc21 | inactive: 0.611% | 
COc1cccc(CNC(=O)NCc2noc3ccc(C)cc23)c1 | inconclusive: 2.68% [signal inhibitor] | 
Cc1occc1-c1nnc(SCC(=O)Nc2ccccc2)n1Cc1ccccc1 | inconclusive: 3.17% [signal inhibitor] | 
COc1ccc(NC(=O)Nc2nnc(N3CCCCCC3)s2)c(OC)c1 | inactive: 0.855% | 
COc1cccc2[nH]c3c(N4CCC(C)CC4)ncnc3c12 | inactive: -4.55% | 
COc1ccccc1-c1cc(C(F)(F)F)nc(S(=O)(=O)CCCC(=O)Nc2ccc(F)c(Cl)c2)n1 |  | inconclusive: 7.94 µM [signal inhibitor, full curve]
CCOC(=O)c1nn(-c2ccc3c(c2)CCN3C(C)=O)cc1O | inactive: 0.0645% | 
COc1ccc(C(=O)N2CCC(c3c[nH]c4ccccc34)(c3c[nH]c4ccccc34)CC2)cc1 | inconclusive: 2.49% [signal inhibitor] | 
O=C1OC2(CCCCC2)OC(=O)C1=CNc1ccc2c(c1)OCO2 | inactive: 1.79% | 
COc1ccccc1CNC(=O)c1oc2c(c1C)-c1nn(Cc3ccc(Cl)cc3)cc1CC2 | inconclusive: 0.601% [signal inhibitor] | 
Cc1c(NS(C)(=O)=O)cccc1-c1nc2ccccc2s1 | inactive: -2.08% | 
Cc1nc2nc(SCC(=O)NCc3ccccc3)nn2c(C)c1Cc1ccccc1 | inconclusive: 2.74% [signal inhibitor] | 
CC(C)CC(=O)Nc1ccc(Cl)c(-c2nc3ccccc3[nH]2)c1 | inconclusive: -0.14% [signal inhibitor] | 
Cc1cc(=O)oc2cc(O)cc(O)c12 | inactive: -1.38% | 
COc1ccc(OC)c(CNC(=O)CN2C(=O)CCn3nc(-c4cn(C)c5ccccc45)cc32)c1 | inconclusive: -1.2% [signal inhibitor] | 
O=C(Nc1ccon1)c1cc2c(s1)CCCCCC2 | inactive: 1.95% | 
N#Cc1ccc(NS(=O)(=O)c2ccc(-c3cnc(C4CC4)o3)cc2)cc1 | inconclusive: 4.99% [signal inhibitor] | 
CC1(C)Cc2cccc(OCC(=O)Nc3nccs3)c2O1 | inconclusive: 2.02% [signal inhibitor] | 
COc1ccccc1NC(=O)CSC1=NC(=O)C(NC(C)=O)C(=O)N1 (stereo unspecified) |  | inconclusive: 10 µM [signal inhibitor, partial curve]
Cc1ccc(C)n1-c1nnc(N2CCCC(C(=O)NCc3ccccc3)C2)s1 (stereo unspecified) | inconclusive: 0.0851% [signal inhibitor] | 
Cc1ccc(NC(=O)CCc2c(C)nc3nc(C)nn3c2C)c(Cl)c1 | inconclusive: 0.335% [signal inhibitor] | 
CNC(=O)c1ccc(Nc2nnc(-c3ccc(C)c(S(=O)(=O)N4CCOCC4)c3)c3ccccc23)cc1 | inconclusive: 8.57% [signal inhibitor] | 
